{
  "source": "PubChem BioAssay AID1460",
  "about": "(National Center for Advancing Translational Sciences (NCATS), 2008)",
  "note": "In all, about 270,000 compounds went through this assay and about 5,800 (2.1%) were called active. Inconclusive means that the source gave no clear call. Such entries were picked first, then a sample of the others. Calls follow the shape of the dose curve; as a rule, active = well fitted inhibition curve with a large enough effect; inconclusive = small, poorly fitted or top-dose-only effect; inactive = flat fitted curve, though single readings scatter. Potencies of inconclusive entries are doubtful fits and often do not repeat. % is scaled to controls: 0 for no effect and ±100 for the full control effect; potency is read from the fitted curve at half-maximal effect; tags tell the direction and shape of the fitted curve.",
  "data": [
    {"molecular_target": "Microtubule-associated protein tau (Homo sapiens) (UniProt P10636)", "sequence (P10636 whole entry, looked up, the tested form may be a part)": "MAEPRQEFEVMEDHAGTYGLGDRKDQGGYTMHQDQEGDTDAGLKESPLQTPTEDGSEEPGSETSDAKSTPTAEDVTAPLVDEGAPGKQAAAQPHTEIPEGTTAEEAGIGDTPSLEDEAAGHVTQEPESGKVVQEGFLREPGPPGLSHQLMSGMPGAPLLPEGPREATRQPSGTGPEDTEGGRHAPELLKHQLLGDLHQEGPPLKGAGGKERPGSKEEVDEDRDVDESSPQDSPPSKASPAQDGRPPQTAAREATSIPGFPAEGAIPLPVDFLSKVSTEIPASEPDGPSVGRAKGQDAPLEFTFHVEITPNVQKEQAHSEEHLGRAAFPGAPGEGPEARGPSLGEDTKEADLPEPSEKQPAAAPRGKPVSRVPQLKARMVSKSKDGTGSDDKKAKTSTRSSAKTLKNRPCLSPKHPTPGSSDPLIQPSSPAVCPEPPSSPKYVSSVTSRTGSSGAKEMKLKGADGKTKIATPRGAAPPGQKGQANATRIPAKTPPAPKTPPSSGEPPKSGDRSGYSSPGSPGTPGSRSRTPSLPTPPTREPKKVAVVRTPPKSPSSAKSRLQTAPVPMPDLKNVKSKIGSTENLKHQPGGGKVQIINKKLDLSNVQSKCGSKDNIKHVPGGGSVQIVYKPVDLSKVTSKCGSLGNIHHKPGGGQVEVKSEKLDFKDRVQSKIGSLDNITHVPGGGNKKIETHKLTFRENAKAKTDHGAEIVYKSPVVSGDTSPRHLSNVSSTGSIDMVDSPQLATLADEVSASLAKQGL", "assay": "qHTS for Inhibitors of Tau Fibril Formation, Thioflavin T Binding; also: nearly all actives have a fitted effect of over 55% in size", "details": "recombinant tau K18 P301L (four-repeat tau fragment), heparin-induced fibrillization, ThT fluorescence; series mostly up to 57.4 µM; activity, negative = inhibition: at the top concentration", "how_it_was_run": "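Aggregation was driven by heparin (20 uM final) acting on recombinant tau […] bearing P301L in 100 mM sodium acetate pH 7; fibrils were detected with Thioflavin T.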", "values": [
      {"smiles": "Cc1c(C=O)c(Cl)n(C)c(=O)c1C#N", "Potency": "inconclusive: 8.91 µM [inhibitor, partial curve]"},
      {"smiles": "O=C(c1ccc(C(F)(F)F)cc1)N1CCC(=O)N([C@H](COCc2ccc(C(F)(F)F)cc2)Cc2ccccc2)CC1", "Potency": "inconclusive: 8.91 µM [inhibitor, partial curve, poor fit]"},
      {"smiles": "COc1cc(CN(C(=O)COc2ccccc2Cl)c2ccccn2)cc(OC)c1OC", "Potency": "inconclusive: 28.2 µM [inhibitor, single point]"},
      {"smiles": "CN(C)c1ccc(/C=C/C(=O)c2cc(Cl)ccc2O)cc1", "Potency": "active: 3.98 µM"},
      {"smiles": "CC#CCCC(=O)N1C=Cc2ccccc2C1C#N", "note": "(stereo not drawn)", "Potency": "inconclusive: 15.8 µM [inhibitor, partial curve, poor fit]"},
      {"smiles": "CCc1nc2ccc(C(=O)Nc3ccc(NC(C)=O)cc3)cc2nc1CC", "activity, negative = inhibition": "inactive: -17.4%"},
      {"smiles": "CNC1=C(N(C(C)=O)c2ccc(Br)cc2)C(=O)c2ccccc2C1=O", "Potency": "inconclusive: 22.4 µM [inhibitor, single point]"},
      {"smiles": "COc1cccc(NC(=O)COC(=O)CCCc2c[nH]c3ccccc23)c1", "Potency": "inconclusive: 17.8 µM [inhibitor, single point]"},
      {"smiles": "Clc1cccc(Cl)c1CNc1ccc(N2CCCC2)cc1", "Potency": "active: 7.94 µM"},
      {"smiles": "COc1cc(NC(=O)NC(C)c2c(-n3cccc3)sc3c2CCN(C)C3)cc(OC)c1", "note": "(stereo not drawn)", "activity, negative = inhibition": "inactive: -15%"},
      {"smiles": "O=CN1CCCN(Cc2nc(-c3cccc(Cl)c3)no2)CC1", "activity, negative = inhibition": "inactive: -0.903%"},
      {"smiles": "O=C(c1ccc2c(c1)CCCC2)N1CCN(c2nc3ccc(F)cc3s2)CC1", "activity, negative = inhibition": "inactive: -11.8%"},
      {"smiles": "COc1ccc(N=C2S/C(=C\\c3cc(C)n(C)c3C)C(=O)N2C)cc1", "Potency": "inconclusive: 15.8 µM [inhibitor, partial curve]"},
      {"smiles": "O=CN/N=C/c1c(O)ccc2ccccc12", "activity, negative = inhibition": "inactive: -2.55%"},
      {"smiles": "N#C/C(=C/c1ccc(N2CCCCC2)o1)c1cccc(F)c1", "Potency": "active: 12.6 µM"},
      {"smiles": "CCc1ccc2oc(-c3cccc(NC(=O)C(C)(C)Oc4ccc(Br)cc4)c3)nc2c1", "activity, negative = inhibition": "inactive: -4.2%"},
      {"smiles": "Cc1ccc(C2CC(c3cccc(Br)c3)Nc3nnnn32)cc1", "note": "(stereo not drawn)", "activity, negative = inhibition": "inactive: -12.6%"},
      {"smiles": "O=C(O)c1cc(S(=O)(=O)Nc2ccc3oc(=O)sc3c2)ccc1O", "Potency": "inconclusive: 28.2 µM [inhibitor, partial curve, poor fit]"},
      {"smiles": "COc1ccc(-c2nnc(Nc3ccc(OC)c(C(N)=O)c3)c3ccccc23)cc1", "Potency": "inconclusive: 17.8 µM [inhibitor, partial curve]"},
      {"smiles": "CCC(C)COC(=O)C(C#N)c1nc2ccccc2nc1N1CCCCC1", "note": "(stereo not drawn)", "Potency": "inconclusive: 15.8 µM [inhibitor, partial curve]"},
      {"smiles": "CN(CC(=O)NC(c1ccccc1)c1ccccc1)Cc1nc2ccccc2c(=O)[nH]1", "activity, negative = inhibition": "inactive: -11.2%"},
      {"smiles": "CC(=O)Nc1ccccc1P(=O)(c1ccccc1)c1ccccc1OC(C)=O", "note": "(stereo not drawn)", "activity, negative = inhibition": "inactive: -2.09%"},
      {"smiles": "Cc1ccc(C)c(Nc2nc3c(S(=O)(=O)c4ccc(Br)cc4)nnn3c3ccsc23)c1", "Potency": "inconclusive: 14.1 µM [activator, partial curve, poor fit]"},
      {"smiles": "Cc1nc2cc(-c3cccc(F)c3)nn2c(C)c1CCC(=O)NC(C)c1ccc2c(c1)OCCO2", "note": "(stereo not drawn)", "Potency": "inconclusive: 35.5 µM [inhibitor, partial curve, poor fit]"},
      {"smiles": "CC(C)c1noc2ncc(C(=O)c3cc(Cl)cc(Cl)c3O)cc12", "Potency": "inconclusive: 25.1 µM [inhibitor, partial curve, poor fit]"},
      {"smiles": "O=C1c2oc3ccccc3c(=O)c2C(c2cccc(O)c2)N1CCCN1CCOCC1", "note": "(stereo not drawn)", "activity, negative = inhibition": "inactive: -3.97%"},
      {"smiles": "CN(C)Cc1ccccc1-c1cc(NC2CC2)ncn1", "activity, negative = inhibition": "inactive: -8.22%"},
      {"smiles": "COc1ccc(S(=O)(=O)c2cc3cc(OC)ccc3oc2=O)cc1", "activity, negative = inhibition": "inactive: 0.422%"},
      {"smiles": "Cc1ccc(NC(=O)Cn2c(=O)n(CCCS(=O)(=O)C3CCCCC3)c(=O)c3ccccc32)cc1F", "activity, negative = inhibition": "inactive: 10.3%"},
      {"smiles": "COc1cc(/C=N/NS(=O)(=O)c2ccccc2)ccc1OS(=O)(=O)c1ccc(C)cc1", "activity, negative = inhibition": "inactive: -12.4%"},
      {"smiles": "COc1ccc(N(C(=O)c2ccc(Cl)cc2)S(=O)(=O)c2ccc(C)cc2)cc1", "activity, negative = inhibition": "inactive: -8.88%"},
      {"smiles": "COC(=O)c1ccccc1NC(=O)CSc1nnnn1C1CCCCC1", "activity, negative = inhibition": "inactive: -9.49%"},
      {"smiles": "CC(=O)Oc1ccc(N2C(=O)CCC2=O)cc1", "activity, negative = inhibition": "inactive: -4.53%"},
      {"smiles": "CN(C)S(=O)(=O)c1cccc(NC(=S)N/N=C/c2cc(Br)ccc2O)c1", "Potency": "inconclusive: 20 µM [inhibitor, partial curve]"},
      {"smiles": "CCC1CCCCN1c1cc(C)nc2cc(-c3cccc(C)c3)nn12", "note": "(stereo not drawn)", "Potency": "inconclusive: 25.1 µM [inhibitor, partial curve]"},
      {"smiles": "O=C(O)c1ccc(C=C(c2nc3ccccc3s2)c2nc3ccccc3s2)cc1", "Potency": "inconclusive: 17.8 µM [inhibitor, partial curve]"},
      {"smiles": "Cc1cccc(N2CCN(C(=O)CCC(=O)NNc3nc4ccccc4c4nc(C)nn34)CC2C)c1", "note": "(stereo not drawn)", "Potency": "inconclusive: 12.6 µM [inhibitor, single point]"},
      {"smiles": "CCN1/C(=C/c2ccc3cc(C)cc(C)c3[n+]2CC)Sc2cc(C)ccc21", "Potency": "active: 4.47 µM"},
      {"smiles": "O=C(O)CSc1ccc2nnc(-c3cccnc3)n2n1", "activity, negative = inhibition": "inactive: 2.39%"},
      {"smiles": "Cc1cccc(N2C(=O)CS/C2=N\\NC(=O)c2ccc(Br)cc2)c1C", "activity, negative = inhibition": "inactive: -4.23%"},
      {"smiles": "FC(F)(F)c1cnc(Nc2ccc(N3CCOCC3)cc2)c(Cl)c1", "Potency": "inconclusive: 7.94 µM [inhibitor, partial curve]"},
      {"smiles": "O=C(O)CCN1C(=O)CC(N2C(=O)/C(=C/c3ccc(Cl)cc3)SC2=S)C1=O", "note": "(stereo not drawn)", "Potency": "inconclusive: 15.8 µM [inhibitor, partial curve]"},
      {"smiles": "Cc1ccc(NS(=O)(=O)c2ccc3c(c2)NC(=O)CCS3)cc1F", "activity, negative = inhibition": "inactive: 10.3%"},
      {"smiles": "Cc1ccc(C(=O)N2CCc3cc(CNC(=O)c4ccnn4C)ccc32)cc1", "activity, negative = inhibition": "inactive: 3.52%"},
      {"smiles": "COc1ccc2c(C(=O)CN(C)C3CCCCC3)c[nH]c2c1", "Potency": "inconclusive: 22.4 µM [inhibitor, single point]"},
      {"smiles": "COc1c(OC(C)=O)ccc(/C=C/c2ccc3cccc(OC)c3n2)c1[N+](=O)[O-]", "Potency": "active: 8.91 µM"},
      {"smiles": "CCC[n+]1c(C)sc2c3c(ccc21)CCCC3", "Potency": "inconclusive: 15.8 µM [inhibitor, single point]"},
      {"smiles": "O=C(c1ccc2c(c1)OCO2)N1CCC2(CC1)Oc1ccc(F)cc1C(=O)C21CC(c2ccc(Cl)cc2)=NO1", "note": "(stereo not drawn)", "Potency": "inconclusive: 35.5 µM [inhibitor, single point]"},
      {"smiles": "CN(c1ccccc1)c1ccc(/C=C(\\CCC(=O)O)c2nc3ccccc3s2)cc1[N+](=O)[O-]", "Potency": "active: 14.1 µM"},
      {"smiles": "CCOC(=O)C1=C(N)Oc2c(oc(CO)cc2=O)C1c1ccc(F)cc1", "note": "(stereo not drawn)", "activity, negative = inhibition": "inactive: 0.748%"},
      {"smiles": "CC(=O)c1sc(NC(=O)C2COc3ccccc3O2)nc1C", "note": "(stereo not drawn)", "activity, negative = inhibition": "inactive: 0.342%"},
      {"smiles": "COc1ccccc1N1CCN(c2cc(C)nc3c(-c4ccc(Cl)cc4)c(C)nn23)CC1", "activity, negative = inhibition": "inactive: -7.72%"},
      {"smiles": "CC(C)c1ccc2occ(CC(=O)Nc3cccc(C(F)(F)F)c3)c2c1", "activity, negative = inhibition": "inactive: -3.98%"},
      {"smiles": "COc1cc(NC(=O)C/C(C)=N/NC(=O)c2cccs2)c(OC)cc1Cl", "Potency": "inconclusive: 25.1 µM [inhibitor, single point]"},
      {"smiles": "Cc1ccc2c(c1)CC(C)N2S(=O)(=O)c1nnc(NC(=O)CC(C)C)s1", "note": "(stereo not drawn)", "Potency": "inconclusive: 4.47 µM [inhibitor, partial curve]"},
      {"smiles": "CCC1CN(C(=O)N2CCC(C(=O)NCc3ccco3)CC2)c2cc(C)ccc2O1", "note": "(stereo not drawn)", "Potency": "inconclusive: 28.2 µM [inhibitor, single point]"},
      {"smiles": "COc1ccc(/C=C2/C(=O)OCc3cc(OC)c(OC)cc32)cc1", "Potency": "inconclusive: 44.7 µM [inhibitor, single point]"},
      {"smiles": "Cn1c(Cc2ccccc2)nnc1SCCC(=O)Nc1ccccc1", "activity, negative = inhibition": "inactive: -4.8%"},
      {"smiles": "COC(=O)CCCC1=CC2=CC(=O)C(C)(OC(=O)c3cccs3)C(=O)C2=CN1CCCOC(C)C", "note": "(stereo not drawn)", "Potency": "inconclusive: 14.1 µM [inhibitor, partial curve]"},
      {"smiles": "CCOC(=O)c1ccc(N2C(=O)C3C(/C=C/c4ccccc4)OC4(C(=O)c5ccccc5C4=O)C3C2=O)cc1", "note": "(stereo not drawn)", "Potency": "inconclusive: 20 µM [inhibitor, single point]"},
      {"smiles": "Cc1cccc(OCCOc2ccccc2C=C(C#N)C#N)c1", "Potency": "inconclusive: 31.6 µM [inhibitor, partial curve]"},
      {"smiles": "O=C(Nc1ccc([N+](=O)[O-])cc1)Nc1ccc(N2CCOCC2)c2nonc12", "Potency": "active: 0.891 µM"},
      {"smiles": "CC(=O)c1cc(N2CCOCC2)ccc1[N+](=O)[O-]", "Potency": "inconclusive: 28.2 µM [inhibitor, single point]"},
      {"smiles": "CCOC(=O)c1cc(OC(=O)c2cccc(Cl)c2)n(-c2ccccc2)n1", "activity, negative = inhibition": "inactive: -0.797%"},
      {"smiles": "CCn1c2c(c(=O)n3ncc(C(=O)Nc4ccc(F)cc4Cl)c13)CN(Cc1ccc(OC)cc1)CC2", "Potency": "inconclusive: 20 µM [inhibitor, single point]"},
      {"smiles": "CCN1CCN(C(=O)c2ccc3c(c2)N(Cc2ccc(F)cc2)C(=O)c2ccccc2S3(=O)=O)CC1", "activity, negative = inhibition": "inactive: -1.71%"},
      {"smiles": "O=c1oc2ccc(F)cc2cc1-c1nc(-c2cccs2)no1", "Potency": "inconclusive: 31.6 µM [inhibitor, single point]"},
      {"smiles": "O=C(COC(=O)/C=C/c1ccc([N+](=O)[O-])cc1)NCC1CCCO1", "note": "(stereo not drawn)", "Potency": "inconclusive: 12.6 µM [inhibitor, partial curve]"},
      {"smiles": "Cc1c(/C=N/NC(N)=O)c2ccccn2c1C(=O)c1ccncc1", "Potency": "inconclusive: 39.8 µM [inhibitor, single point]"},
      {"smiles": "Nn1c(SCC(=O)Nc2ccccc2F)nnc1-c1cccnc1", "Potency": "inconclusive: 31.6 µM [inhibitor, single point]"},
      {"smiles": "COCCOCC(O)CN1CCN(c2ccc(C)cc2)CC1", "note": "(stereo not drawn)", "activity, negative = inhibition": "inactive: 2.81%"},
      {"smiles": "Cc1cc(C)c2nc(-c3ccccn3)cc(C(=O)NCc3ccco3)c2c1", "Potency": "inconclusive: 14.1 µM [inhibitor, partial curve]"},
      {"smiles": "Cc1ccc(-c2nc(CSCC(=O)N3CCN(c4ccccn4)CC3)c(C)o2)cc1", "Potency": "inconclusive: 14.1 µM [inhibitor, partial curve]"}
    ]}
  ]
}
